This is one part of the list.
Target: T1, MBP-FoxP1dN (Mus musculus, UniProt P58462 326-579)
T1 sequence: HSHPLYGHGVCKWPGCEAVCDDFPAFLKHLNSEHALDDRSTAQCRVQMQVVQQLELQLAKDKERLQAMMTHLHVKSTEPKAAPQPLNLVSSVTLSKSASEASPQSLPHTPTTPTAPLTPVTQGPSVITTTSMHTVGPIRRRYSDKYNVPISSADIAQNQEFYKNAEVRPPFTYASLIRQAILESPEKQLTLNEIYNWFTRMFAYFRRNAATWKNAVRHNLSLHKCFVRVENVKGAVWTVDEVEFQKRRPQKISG
Experiment: PD-seq (MBP pull-down with sequencing); 20 mM Tris-HCl pH 7.5, 100 mM NaCl, 1.5 mM MgCl2, 0.4 uM protein, 0.1 uM dsDNA library, 30 min, room temperature, amylose pull-down; high values mean tight binding
Details: protein: recombinant; tags: His6-MBP; chain copies: 2; dsDNA, one strand shown
How it was run: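 A fragment of mouse FoxP3 or FoxP1 without its N-terminus, carrying a His6-MBP tag and produced in E. coli, was combined at 0.4 µM with a 0.1 µM degenerate double-stranded DNA library filled in with Klenow. The mixture sat for 30 min at room temperature in Tris pH 7.5 buffer containing NaCl and MgCl2. Protein–DNA complexes were captured on amylose resin, washed three times, and the DNA was freed with proteinase K, barcoded by PCR and sequenced on Illumina. Binding is expressed as reads-per-million enrichment of pull-down over input, with replicates pooled.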

Sequence | binding signal
GATGATTGTTCTCCCAGCTGATGAATTTCCGGCATCGAGTAAACAAATTTTCCTAATCTTTCTGTTCAAGCGCCATCTAC | 0.948 RPM ratio (pull-down/input)
GATGATTGTTCTCCCAGCTGATGAATTATATGTCTCGAGTAAACAAATTTTCCTAATCTTTCTGTTCAAGCGCCATCTAC | 0.958 RPM ratio (pull-down/input)
GATGATTGTTCTCCCAGCTGATGAATTTAGCCGCTCGAGTAAACAAATTTTCCTAATCTTTCTGTTCAAGCGCCATCTAC | 0.835 RPM ratio (pull-down/input)
GATGATTGTTCTCCCAGCTGATGAATTGGCCCAATCGAGTAAACAAATTTTCCTAATCTTTCTGTTCAAGCGCCATCTAC | 0.93 RPM ratio (pull-down/input)
GATGATTGTTCTCCCAGCTGATGAATTGGACTAGTCGAGTAAACAAATTTTCCTAATCTTTCTGTTCAAGCGCCATCTAC | 0.735 RPM ratio (pull-down/input)
GATGATTGTTCTCCCAGCTGATGAATTGAGACATTCGAGTAAACAAATTTTCCTAATCTTTCTGTTCAAGCGCCATCTAC | 0.975 RPM ratio (pull-down/input)
GATGATTGTTCTCCCAGCTGATGAATTCCTCGTGTCGAGTAAACAAATTTTCCTAATCTTTCTGTTCAAGCGCCATCTAC | 0.828 RPM ratio (pull-down/input)
GATGATTGTTCTCCCAGCTGATGAATTATGCAGCTCGAGTAAACAAATTTTCCTAATCTTTCTGTTCAAGCGCCATCTAC | 0.925 RPM ratio (pull-down/input)
GATGATTGTTCTCCCAGCTGATGAATTAGCGTTCTCGAGTAAACAAATTTTCCTAATCTTTCTGTTCAAGCGCCATCTAC | 0.876 RPM ratio (pull-down/input)
GATGATTGTTCTCCCAGCTGATGAATTTTATCAATCGAGTAAACAAATTTTCCTAATCTTTCTGTTCAAGCGCCATCTAC | 1.02 RPM ratio (pull-down/input)
GATGATTGTTCTCCCAGCTGATGAATTTCTTTACTCGAGTAAACAAATTTTCCTAATCTTTCTGTTCAAGCGCCATCTAC | 1.04 RPM ratio (pull-down/input)
GATGATTGTTCTCCCAGCTGATGAATTCATATATTCGAGTAAACAAATTTTCCTAATCTTTCTGTTCAAGCGCCATCTAC | 1.06 RPM ratio (pull-down/input)
GATGATTGTTCTCCCAGCTGATGAATTAACGACCTCGAGTAAACAAATTTTCCTAATCTTTCTGTTCAAGCGCCATCTAC | 0.827 RPM ratio (pull-down/input)
GATGATTGTTCTCCCAGCTGATGAATTCCTCGACTCGAGTAAACAAATTTTCCTAATCTTTCTGTTCAAGCGCCATCTAC | 0.814 RPM ratio (pull-down/input)
GATGATTGTTCTCCCAGCTGATGAATTTCTAAACTCGAGTAAACAAATTTTCCTAATCTTTCTGTTCAAGCGCCATCTAC | 0.947 RPM ratio (pull-down/input)
GATGATTGTTCTCCCAGCTGATGAATTCCATGAGTCGAGTAAACAAATTTTCCTAATCTTTCTGTTCAAGCGCCATCTAC | 0.847 RPM ratio (pull-down/input)
GATGATTGTTCTCCCAGCTGATGAATTTCCTTACTCGAGTAAACAAATTTTCCTAATCTTTCTGTTCAAGCGCCATCTAC | 0.874 RPM ratio (pull-down/input)
GATGATTGTTCTCCCAGCTGATGAATTACTCGGATCGAGTAAACAAATTTTCCTAATCTTTCTGTTCAAGCGCCATCTAC | 0.978 RPM ratio (pull-down/input)
GATGATTGTTCTCCCAGCTGATGAATTTGACATATCGAGTAAACAAATTTTCCTAATCTTTCTGTTCAAGCGCCATCTAC | 0.899 RPM ratio (pull-down/input)
GATGATTGTTCTCCCAGCTGATGAATTCCGGTGGTCGAGTAAACAAATTTTCCTAATCTTTCTGTTCAAGCGCCATCTAC | 0.767 RPM ratio (pull-down/input)
GATGATTGTTCTCCCAGCTGATGAATTGGTATAATCGAGTAAACAAATTTTCCTAATCTTTCTGTTCAAGCGCCATCTAC | 1.31 RPM ratio (pull-down/input)

Sequence | binding signal
GATGATTGTTCTCCCAGCTGATGAATTCTGACCATCGAGTAAACAAATTTTCCTAATCTTTCTGTTCAAGCGCCATCTAC | 0.832 RPM ratio (pull-down/input)
GATGATTGTTCTCCCAGCTGATGAATTGTTTTTGTCGAGTAAACAAATTTTCCTAATCTTTCTGTTCAAGCGCCATCTAC | 2.31 RPM ratio (pull-down/input)
GATGATTGTTCTCCCAGCTGATGAATTCTAGCCCTCGAGTAAACAAATTTTCCTAATCTTTCTGTTCAAGCGCCATCTAC | 0.767 RPM ratio (pull-down/input)
GATGATTGTTCTCCCAGCTGATGAATTGAGACACTCGAGTAAACAAATTTTCCTAATCTTTCTGTTCAAGCGCCATCTAC | 0.946 RPM ratio (pull-down/input)
GATGATTGTTCTCCCAGCTGATGAATTCAGCCACTCGAGTAAACAAATTTTCCTAATCTTTCTGTTCAAGCGCCATCTAC | 0.977 RPM ratio (pull-down/input)
GATGATTGTTCTCCCAGCTGATGAATTCTGGATGTCGAGTAAACAAATTTTCCTAATCTTTCTGTTCAAGCGCCATCTAC | 0.859 RPM ratio (pull-down/input)
GATGATTGTTCTCCCAGCTGATGAATTCGCGACTTCGAGTAAACAAATTTTCCTAATCTTTCTGTTCAAGCGCCATCTAC | 0.875 RPM ratio (pull-down/input)
GATGATTGTTCTCCCAGCTGATGAATTTAATGTTTCGAGTAAACAAATTTTCCTAATCTTTCTGTTCAAGCGCCATCTAC | 1.15 RPM ratio (pull-down/input)
GATGATTGTTCTCCCAGCTGATGAATTTTCGCGGTCGAGTAAACAAATTTTCCTAATCTTTCTGTTCAAGCGCCATCTAC | 0.838 RPM ratio (pull-down/input)
GATGATTGTTCTCCCAGCTGATGAATTTAGTCTGTCGAGTAAACAAATTTTCCTAATCTTTCTGTTCAAGCGCCATCTAC | 0.85 RPM ratio (pull-down/input)
GATGATTGTTCTCCCAGCTGATGAATTTTTAGGTTCGAGTAAACAAATTTTCCTAATCTTTCTGTTCAAGCGCCATCTAC | 0.874 RPM ratio (pull-down/input)
GATGATTGTTCTCCCAGCTGATGAATTAGCACCCTCGAGTAAACAAATTTTCCTAATCTTTCTGTTCAAGCGCCATCTAC | 0.887 RPM ratio (pull-down/input)
GATGATTGTTCTCCCAGCTGATGAATTTCTCGTATCGAGTAAACAAATTTTCCTAATCTTTCTGTTCAAGCGCCATCTAC | 0.867 RPM ratio (pull-down/input)
GATGATTGTTCTCCCAGCTGATGAATTGATGCGCTCGAGTAAACAAATTTTCCTAATCTTTCTGTTCAAGCGCCATCTAC | 1.45 RPM ratio (pull-down/input)
GATGATTGTTCTCCCAGCTGATGAATTGCATCACTCGAGTAAACAAATTTTCCTAATCTTTCTGTTCAAGCGCCATCTAC | 1.5 RPM ratio (pull-down/input)
GATGATTGTTCTCCCAGCTGATGAATTTGGCGCGTCGAGTAAACAAATTTTCCTAATCTTTCTGTTCAAGCGCCATCTAC | 1.02 RPM ratio (pull-down/input)
GATGATTGTTCTCCCAGCTGATGAATTATAGAATTCGAGTAAACAAATTTTCCTAATCTTTCTGTTCAAGCGCCATCTAC | 0.945 RPM ratio (pull-down/input)
GATGATTGTTCTCCCAGCTGATGAATTCGCACTCTCGAGTAAACAAATTTTCCTAATCTTTCTGTTCAAGCGCCATCTAC | 0.925 RPM ratio (pull-down/input)
GATGATTGTTCTCCCAGCTGATGAATTTATGAGATCGAGTAAACAAATTTTCCTAATCTTTCTGTTCAAGCGCCATCTAC | 1.08 RPM ratio (pull-down/input)
GATGATTGTTCTCCCAGCTGATGAATTTACGAGTTCGAGTAAACAAATTTTCCTAATCTTTCTGTTCAAGCGCCATCTAC | 1.16 RPM ratio (pull-down/input)
GATGATTGTTCTCCCAGCTGATGAATTGACTCCCTCGAGTAAACAAATTTTCCTAATCTTTCTGTTCAAGCGCCATCTAC | 1.04 RPM ratio (pull-down/input)

Sequence | binding signal
GATGATTGTTCTCCCAGCTGATGAATTTTTGCGCTCGAGTAAACAAATTTTCCTAATCTTTCTGTTCAAGCGCCATCTAC | 0.799 RPM ratio (pull-down/input)
GATGATTGTTCTCCCAGCTGATGAATTTATAGACTCGAGTAAACAAATTTTCCTAATCTTTCTGTTCAAGCGCCATCTAC | 0.965 RPM ratio (pull-down/input)
GATGATTGTTCTCCCAGCTGATGAATTTAACCAGTCGAGTAAACAAATTTTCCTAATCTTTCTGTTCAAGCGCCATCTAC | 0.791 RPM ratio (pull-down/input)
GATGATTGTTCTCCCAGCTGATGAATTCTTCAGTTCGAGTAAACAAATTTTCCTAATCTTTCTGTTCAAGCGCCATCTAC | 0.849 RPM ratio (pull-down/input)
GATGATTGTTCTCCCAGCTGATGAATTACACTACTCGAGTAAACAAATTTTCCTAATCTTTCTGTTCAAGCGCCATCTAC | 1.14 RPM ratio (pull-down/input)
GATGATTGTTCTCCCAGCTGATGAATTCAAGAGATCGAGTAAACAAATTTTCCTAATCTTTCTGTTCAAGCGCCATCTAC | 0.784 RPM ratio (pull-down/input)
GATGATTGTTCTCCCAGCTGATGAATTCTTTGGGTCGAGTAAACAAATTTTCCTAATCTTTCTGTTCAAGCGCCATCTAC | 0.822 RPM ratio (pull-down/input)
GATGATTGTTCTCCCAGCTGATGAATTTCTAGTGTCGAGTAAACAAATTTTCCTAATCTTTCTGTTCAAGCGCCATCTAC | 0.945 RPM ratio (pull-down/input)
GATGATTGTTCTCCCAGCTGATGAATTAGTTGCCTCGAGTAAACAAATTTTCCTAATCTTTCTGTTCAAGCGCCATCTAC | 1.05 RPM ratio (pull-down/input)
GATGATTGTTCTCCCAGCTGATGAATTATTTATATCGAGTAAACAAATTTTCCTAATCTTTCTGTTCAAGCGCCATCTAC | 1.75 RPM ratio (pull-down/input)
GATGATTGTTCTCCCAGCTGATGAATTCTGCTCCTCGAGTAAACAAATTTTCCTAATCTTTCTGTTCAAGCGCCATCTAC | 0.728 RPM ratio (pull-down/input)
GATGATTGTTCTCCCAGCTGATGAATTTACCTCCTCGAGTAAACAAATTTTCCTAATCTTTCTGTTCAAGCGCCATCTAC | 1.07 RPM ratio (pull-down/input)
GATGATTGTTCTCCCAGCTGATGAATTATATGACTCGAGTAAACAAATTTTCCTAATCTTTCTGTTCAAGCGCCATCTAC | 0.981 RPM ratio (pull-down/input)
GATGATTGTTCTCCCAGCTGATGAATTTTTAGTCTCGAGTAAACAAATTTTCCTAATCTTTCTGTTCAAGCGCCATCTAC | 0.983 RPM ratio (pull-down/input)
GATGATTGTTCTCCCAGCTGATGAATTTAATGCGTCGAGTAAACAAATTTTCCTAATCTTTCTGTTCAAGCGCCATCTAC | 1.22 RPM ratio (pull-down/input)
GATGATTGTTCTCCCAGCTGATGAATTTCTTATATCGAGTAAACAAATTTTCCTAATCTTTCTGTTCAAGCGCCATCTAC | 0.948 RPM ratio (pull-down/input)
GATGATTGTTCTCCCAGCTGATGAATTGGGGAAGTCGAGTAAACAAATTTTCCTAATCTTTCTGTTCAAGCGCCATCTAC | 0.788 RPM ratio (pull-down/input)
GATGATTGTTCTCCCAGCTGATGAATTTTGCACATCGAGTAAACAAATTTTCCTAATCTTTCTGTTCAAGCGCCATCTAC | 1.07 RPM ratio (pull-down/input)
GATGATTGTTCTCCCAGCTGATGAATTTCGGCGGTCGAGTAAACAAATTTTCCTAATCTTTCTGTTCAAGCGCCATCTAC | 0.736 RPM ratio (pull-down/input)
GATGATTGTTCTCCCAGCTGATGAATTTTTGGGGTCGAGTAAACAAATTTTCCTAATCTTTCTGTTCAAGCGCCATCTAC | 0.802 RPM ratio (pull-down/input)
GATGATTGTTCTCCCAGCTGATGAATTACCCTACTCGAGTAAACAAATTTTCCTAATCTTTCTGTTCAAGCGCCATCTAC | 0.96 RPM ratio (pull-down/input)
